Assay results reported in the RNAGym collection of RNA variant scans (doi:10.1093/nar/gkz1192).
Read counts are not given, so values of variants with three or more changes are uncertain.

B1: CPEB3 Ribozyme (parent)
chain: UAACAGGGGGCCACAGCAGAAGCGUUCACGUCGCAGCCCCUGUCAGAUUCUGGUGAAUCUGCGAAUUCUGCUGUAUAUCUC

Variants of: B1
Assay: self-cleavage, relative activity (ratio to wild type); higher = more cleavage; in vitro, sequencing
Procedure, shortened: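 Relative activity compares each variant's cleaved/total read fraction with that of the unmutated ribozyme. To get these fractions, barcoded CPEB3 ribozyme libraries from rounds of error-prone PCR were transcribed with T7 RNA polymerase for 5 hours at 37°C and then given 15 min of DNase I treatment before EDTA was added. The RNAs were reverse transcribed with template switching and sequenced on Illumina, and DNA sequencing linked barcodes to variants. A minimum of 5 reads applied, and three batches were averaged.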

| Variant | self-cleavage |
| --- | --- |
| U26C A28U G33C G61A | 0.12 |
| U26C G33A A57U A64G U67A C71G | 0.09 |
| U26C A45U U48C U72C | 0.09 |
| U26C A28U G63A U76A | 0.33 |
| U26C A35G A45C A47U | 0.15 |
| U26C A28G U31C U49C | 0.22 |
| U26C C34A U49A | 0.13 |
| U26C C27U U31C U72C | 0.23 |
| U26C A47G C68U U74C | 0.55 |
| U26C A28G U67A | 0.22 |
| U26C A28G U41C U72C | 0.06 |
| U26C A35C U41C A56G | 0.42 |
| U26C C29A C39U U80C | 0.15 |
| U26C A35U A47G | 0.23 |
| U26C A45G U49C U60C C81U | 0.27 |
| U26C C39U U54C | 0.23 |
| U26C C32U U76C U80C | 0.13 |
| U26C A35G U54C U58C U78C | 0.46 |
| U26C C32U U48A U58C | 0.05 |
| U26C C38A U48C | 0.08 |
| U26C A35U U43A U51A | 0.13 |
| U26C G30A A45G | 0.1 |
| U26C C32U U43C | 0.1 |
| U26C A28C A35U A57G U67A U72A | 0.06 |

| Variant | self-cleavage |
| --- | --- |
| U26C A28U U60C U80A | 0.36 |
| U26C A56G C81U | 0.6 |
| U26C A56G U60A U72C | 0 |
| U26C C50G A65U | 0.13 |
| U26C C59A U67A U80G | 0.1 |
| U26C A45U U54A C62U | 0.11 |
| U26C C32U U51C U66C | 0.09 |
| U26C C27U U43C | 0.1 |
| U26C C40G C81U | 0.14 |
| U26C A64U G73U | 0.15 |
| U26C A57C U69A | 0.15 |
| U26C C38U A56G | 0.17 |
| U26C C38A A57G | 0.09 |
| U26C C34U U66C | 0.13 |
| U26C C59G U80G | 0.2 |
| U26C C32A U41G | 0.26 |
| U26C A47C U51C | 0.35 |
| U26C C71A U72C | 0.09 |
| U26C C37A U43A G46A U54C | 0.33 |
| U26C A64U U74C | 0.19 |
| U26C A28G U51C U72A A75C | 0.08 |
| U26C C37U U41A U54C A75U | 0.19 |
| U26C G30U U69A U72C | 0.12 |
| U26C C29U G42C U66C U78C U80C | 0.07 |

| Variant | self-cleavage |
| --- | --- |
| U26C A45C A64U | 0.07 |
| U26C C27U U54C A57G | 0.13 |
| U26C C38A A45U A56G U60A U67C | 0.11 |
| U26C A57G U67C | 0.12 |
| U26C C27A U54A U60C A65G U67C | 0.06 |
| U26C A56U A77G | 0.41 |
| U26C A35U U43A A65G U72A | 0.05 |
| U26C C62U U74G U78A | 0.03 |
| U26C A35G C39U U72G U76C | 1.11 |
| U26C C44A U51C | 0.31 |
| U26C G30C U41C A45U | 0.25 |
| U26C A28U A35G G36C U43C U72A | 0.09 |
| U26C A57G A64U A65C U76C | 1.06 |
| U26C A45G U51C U60A U67A A75C | 0.27 |
| U26C C39A U51C | 0.28 |
| U26C G33A A35U | 0.17 |
| U26C C32U U49C U66C | 0.07 |
| U26C C62U U67C | 0.1 |
| U26C C29U U41C U78C U80C | 0.11 |
| U26C A35G U60C U72C | 0.63 |
| U26C G30A U54C | 0.1 |
| U26C A28U G36C | 0.07 |
| U26C A28G U69C U80C | 0.1 |
| U26A U60G A75U | 0.35 |

| Variant | self-cleavage |
| --- | --- |
| U26C A56G U69A U76C | 0.16 |
| U26C A45C U49A A56G A65G | 0.06 |
| U26C A28U C50U | 0.11 |
| U26C A47G U80A | 0.41 |
| U26C A28G U49C U51C A56G | 0.22 |
| U26C A56G C68A U78C | 0.19 |
| U26C C40U U41C U66C U69C A75G | 0.06 |
| U26C A47G U58C C68U U74C | 0.47 |
| U26C G30U U80C | 0.19 |
| U26C A47G U48C A64U | 0.24 |
| U26C A45G U49C A64U | 0.08 |
| U26C A56G G61A U72C | 0.1 |
| U26C C32A U49C U51A | 0.17 |
| U26C A64U A75G | 0.17 |
| U26C A28G U41C U43C A47G | 0.36 |
| U26C A28G A35U U41C U72C | 0.29 |
| U26C A47G A56U U76C | 0.16 |
| U26C A35U U60A U76C | 0.13 |
| U26C A28G A35G U54C U80C | 0.45 |
| U26C C32U C37A C40G U43A U58C | 0.06 |
| U26A U60G G70U U78C | 0.12 |
| U26C A35C U54A | 0.22 |
| U26C A45G U67C | 0.05 |
| U26C A45G U67A | 0.41 |

| Variant | self-cleavage |
| --- | --- |
| U26C A35G C38A U78C | 0.15 |
| U26C A47C U69C U76A | 0.13 |
| U26C C44U U49C C62U | 0.06 |
| U26C A35G U43A U51A | 0.23 |
| U26C A56G U69C U80A | 0.09 |
| U26C A56G U74C U80C | 0.33 |
| U26C A35G C38U U60C U66C U72A A77G | 0.34 |
| U26C A28G A35G U51A A65G U66C C68G | 0.13 |
| U26C A28G U66C U76A | 0.16 |
| U26C G30A U60G | 0.15 |
| U26C C32A U78C | 0.15 |
| U26C C44A U67A | 0.09 |
| U26C A65G U72C U78C | 0.18 |
| U26C C38U U72A | 0.13 |
| U26C A35G U41A A57U | 0.1 |
| U26C A28U A45G U54C U67C | 0.05 |
| U26C A28U A35U U54A | 0.2 |
| U26C A28G C68A | 0.06 |
| U26C A35U U60C | 0.13 |
| U26C A57G A65G | 0.08 |
| U26C A57G U74A U80C | 0.46 |
| U26C A56G U78A | 0.28 |
| U26C C38U A57G C81U | 0.21 |
| U26C A65G C68G | 0.16 |

| Variant | self-cleavage |
| --- | --- |
| U26C A45U U66C C79U | 0.15 |
| U26C A47G U48A U49C U69A U76C | 0.06 |
| U26C A28G U41A A64U | 0.15 |
| U26C A28G U31A A64G U80C | 0.36 |
| U26C A64G C79A | 0.3 |
| U26C A35G U41C U48C U72C U74A | 0.46 |
| U26C A45G U66C U69C U72A U78A | 0.06 |
| U26C A65G U69C | 0.14 |
| U26C A35U U43C A56G A75G U76C | 0.06 |
| U26C C39A U51C U78C | 0.05 |
| U26A U76C U78C | 0.93 |
| U26C C37U G73U | 0.42 |
| U26C C32U C38A U49G A64G A65U | 0.08 |
| U26C C34U U69A | 0.2 |
| U26C A57G U60C U66C U69C | 0.31 |
| U26C C34A C40U | 0.19 |
| U26C A57U U60A | 0.13 |
| U26C A28G A47C U69C A75U | 0.04 |
| U26C C29G U43C A64U U80A | 0.1 |
| U26C A45C U74G | 0.38 |
| U26A U60C G63A | 0.48 |
| U26C A35U U51C U58C U69A | 0.07 |
| U26A U69C U78C | 0.74 |
| U26C A45U C68A U80C | 0.09 |

| Variant | self-cleavage |
| --- | --- |
| U26C C38A A56G C68A | 0.15 |
| U26C G30A G63A | 0.22 |
| U26C A35G U48C A77G | 0.85 |
| U26C A28G U43C U72A | 0.3 |
| U26C C32A A56G | 0.42 |
| U26C A28U A35U C39U | 0.1 |
| U26C A35G U74C U78C | 1.23 |
| U26C A47G U49C U51C A57U | 0.21 |
| U26C A56G U67C | 0.17 |
| U26C A45G A56G | 0.1 |
| U26C A45U U69A | 0.09 |
| U26C A45U U69C | 0.1 |
| U26C A28U U41C U67C U69A | 0.07 |
| U26C A45U U76C A77U | 0.08 |
| U26C A28U U41A U67C | 0.08 |
| U26C A45G U51A A64G U78C | 0.09 |
| U26C C38U A56G G73U | 0.28 |
| U26C C37U C71G | 0.13 |
| U26C A56G A64C | 0.12 |
| U26C A35G A47G U74A | 1.2 |
| U26C A28C U41G A45G U60G | 0.33 |
| U26C A47G U54C U58C | 0.37 |
| U26C A28G A35G C40U | 0.19 |
